# Experimental data taken from PubChem BioAssay AID686970 (National Center for Advancing Translational Sciences (NCATS), 2013).
# About 6,000 (1.7%) of roughly 360,000 compounds were called active. Inconclusive results, whose numbers are uncertain, are shown with a selection of clear calls. Calls follow the shape of the dose curve; as a rule, active = well fitted cell-killing curve with a large enough effect; inconclusive = small, poorly fitted or top-dose-only effect, or effect the other way; inactive = flat fitted curve, though single readings scatter. Potencies of inconclusive entries are left out as doubtful fits.
# Assay: qHTS for induction of synthetic lethality in tumor cells producing 2HG: qHTS for the HT-1080-NT fibrosarcoma cell line;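 also: NT is the 2HG producing partner of a matched IDH1 knockdown line; nearly all actives have a fitted effect of over 55% in size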;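 as to activity, negative = less viability: 0% = DMSO-treated cells and -100% = media-only wells without cells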
# Settings: HT-1080-NT fibrosarcoma viability, CellTiter-Glo ATP luminescence, 48 h; activity, negative = less viability: at 46.1 µM (top of the series) unless noted
# In short: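 A 48-hour cytotoxicity screen used HT-1080-NT cells plated 2 hours before compound delivery. ATP-based CellTiter-Glo luminescence measured viability, normalized to DMSO and no-cell controls.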
# Potency is read from the fitted curve at half-maximal effect; tags tell the direction and shape of the fitted curve.
SMILES,Potency,"activity, negative = less viability"
Cc1cc(C)c2c(c1)cc(C)c1nnc(SCC(=O)Nc3cc(C)on3)n12,active: 6.31 µM,–
NC(Cc1ccccc1)c1csc(Nc2ccc(C(=O)c3ccccc3)cc2)n1 (centres undefined),"inconclusive [cytotoxic, single point]",–
Cc1ccc(NS(=O)(=O)c2cccc(C(=O)NCC(c3cccs3)N(C)C)c2)cc1 (centres undefined),"inconclusive [cytotoxic, partial curve]",–
Cc1cc(NC(=O)CSc2nc3c([nH]c4ccccc43)c(=O)n2-c2cccc(C(F)(F)F)c2)no1,"inconclusive [cytotoxic, partial curve, poor fit]",–
O=C(/C=C/c1ccc(Cl)cc1)NC(=S)Nc1ccc(NC(=O)c2ccco2)cc1,"inconclusive [cytotoxic, partial curve]",–
Cc1cc(-c2cc(C)c(N)cc2C)c(C)cc1N,"inconclusive [cytotoxic, single point]",–
COc1ccc(/C=C/C(=O)c2cc3c(cc2N)OCO3)cc1,"inconclusive [cytotoxic, single point]",–
COCCn1c(SCC(=O)NC2CCCCC2C)nnc1-c1ccncc1 (centres undefined),–,inconclusive: 12%
Cc1ccc(S(=O)(=O)N2CCN(c3nc(-c4cncn4C)nc4ccccc34)CC2)cc1,"inconclusive [cytotoxic, single point]",–
CN1CCN(Cc2cccc(Oc3ccc(Cl)cc3)c2)CC1,"inconclusive [cytotoxic, single point]",–
Cc1ccc(C)c(C(O)c2ncc(-c3ccc(C(F)(F)F)cc3)[nH]2)c1 (centres undefined),"inconclusive [cytotoxic, partial curve]",–
O=C(NC(c1ccc(-c2ccccc2)cc1)c1cnccn1)C1CCN(Cc2ccc3c(c2)OCO3)CC1 (centres undefined),active: 13 µM,–
O=C(Nc1ccc(C(=O)N2CCCC2)cc1)c1ccc2c(c1)OCO2,"inconclusive [cytotoxic, single point]",–
N=c1c2c(-c3ccccc3)c(-c3ccccc3)oc2ncn1CCCN1CCOCC1,–,inactive: -29.7%
CCOC(=O)C1=CCN(S(=O)(=O)c2ccccc2C)C1c1ccc(Cl)cc1 (centres undefined),"inconclusive [cytotoxic, single point]",–
CCOc1ccc2nc(N3CCCC(C(=O)NCCCN4CC(C)CC(C)C4)C3)sc2c1 (centres undefined),active: 16.4 µM,–
O=C(Nc1ccc(Oc2ncnc3cc(Cl)ccc23)nc1)c1ccc(F)cc1,"inconclusive [rising, partial curve]",–
CC(=O)c1ccc(OCC(C)C)c(CN2CCCCC2)c1,–,inconclusive: 11.4%
O=C(/C=C\c1ccco1)Nc1cc([N+](=O)[O-])ccc1F,active: 1.46 µM,–
Nc1ccn(CC(=O)NCc2ccc3[nH]ccc3c2)c(=O)n1,–,inactive: 0.691%
Cc1ccc(C(=O)C=Cc2cccc(C)c2)cc1,"inconclusive [cytotoxic, single point]",–
CS(=O)(=O)N1CCCCC1c1cc(C(=O)NCc2ccc(F)cc2)no1 (centres undefined),"inconclusive [rising, partial curve]",–

SMILES,Potency,"activity, negative = less viability"
CC(C)OCCCn1c(-c2ccco2)nc2nc3ccccc3nc21,"inconclusive [cytotoxic, single point]",–
CN1CCN(c2nc(Nc3ccc(F)cc3)nc(Nc3ccc(F)cc3)n2)CC1,"inconclusive [cytotoxic, single point]",–
O=C(N/N=C/c1ccccn1)c1cc(-c2ccncc2)nc2ccccc12,–,inactive: 9.18%
CSC(=S)N/N=C/c1c[nH]c2ccccc12,"inconclusive [cytotoxic, single point]",–
c1ccc(Nc2ncnc3sccc23)cc1,–,inactive: -6.78%
COCC(C)n1c(C)cc(C(=O)CSc2nc3ccccc3c(=O)[nH]2)c1C (centres undefined),"inconclusive [cytotoxic, single point]",–
O=C1NC[C@H](c2ccccc2)OC(=O)[C@@H](Cc2ccc(F)cc2)C/C=C\C[C@H]1CC(=O)N(CCO)Cc1ccccc1,"inconclusive [cytotoxic, single point]",–
NNc1nc2c(-c3cccc(C(F)(F)F)c3)nnn2c2ccccc12,active: 20.6 µM,–
Cc1cccc(C)c1NC(=O)COC(=O)[C@@H]1CCCN1C(=O)c1cccs1,–,inactive: -2.3%
CCCCCC(=O)N1C[C@H](n2cc(COC(=O)c3ccccc3)nn2)[C@@H](O)C[C@@H]1c1ccc(Cl)cc1,"inconclusive [cytotoxic, single point]",–
Cc1ccc2c(c1)-c1nc3ccccc3cc1C2=NC1CCCCC1,"inconclusive [cytotoxic, single point]",–
CCOC(=O)N1CCN(CC(=O)Nc2sc(CC)cc2C(=O)c2ccc(OC)cc2)CC1,"inconclusive [cytotoxic, single point]",–
CO/N=C\CC(=O)Nc1ccc(Cl)c(Cl)c1,active: 8.2 µM,–
CSc1cccc(NC(=S)N(CCCN2CCCC(C)C2)Cc2cccs2)c1 (centres undefined),"inconclusive [cytotoxic, single point]",–
CCCCCCn1nc(C(=O)OCC(=O)c2c(N)n(C)c(=O)n(C)c2=O)c2ccccc2c1=O,–,inactive: 1.25%
CCCCCn1c2c(c(=N)c3ccccc31)CCC2,"inconclusive [cytotoxic, partial curve]",–
Cc1nc2c(O)c3c(c(O)c2nc1C)C1C=CC3CC1,"inconclusive [cytotoxic, single point]",–
O=C(Cn1ncn2c(cc3ccccc32)c1=O)NCCc1cccs1,–,inactive: 6.52%
CN1CCN(c2nc(-c3ccncc3)nc3ccccc23)CC1,"inconclusive [cytotoxic, single point]",–
CC(=O)N(C1=C(Cl)C(=O)c2ccccc2C1=O)c1ccc(C(=O)O)cc1,"inconclusive [cytotoxic, single point]",–
COc1cc(/C=C/C(=O)OCC(=O)N2CCc3ccccc32)cc(OC)c1OC,–,inactive: -3.4%
CCN(CC)S(=O)(=O)c1cccc(C(=O)N/N=C/c2ccc([N+](=O)[O-])o2)c1,"inconclusive [cytotoxic, single point]",–
